# Assay results published in publication PMC4336329 (PLoS ONE, 2015).
# The whole screen tested about 310,000 compounds, of which about 2,200 (0.71%) showed an effect of 50% or more. The effect is printed as a negative number. This is one part of the list.
# Target: human ether-à-go-go-related gene (hERG) potassium channel (human, UniProt Q12809)
# Assay: primary screen, population patch clamp on CHO cells stably expressing hERG
# Sequence of human ether-à-go-go-related gene (hERG) potassium channel (Q12809 whole entry, looked up): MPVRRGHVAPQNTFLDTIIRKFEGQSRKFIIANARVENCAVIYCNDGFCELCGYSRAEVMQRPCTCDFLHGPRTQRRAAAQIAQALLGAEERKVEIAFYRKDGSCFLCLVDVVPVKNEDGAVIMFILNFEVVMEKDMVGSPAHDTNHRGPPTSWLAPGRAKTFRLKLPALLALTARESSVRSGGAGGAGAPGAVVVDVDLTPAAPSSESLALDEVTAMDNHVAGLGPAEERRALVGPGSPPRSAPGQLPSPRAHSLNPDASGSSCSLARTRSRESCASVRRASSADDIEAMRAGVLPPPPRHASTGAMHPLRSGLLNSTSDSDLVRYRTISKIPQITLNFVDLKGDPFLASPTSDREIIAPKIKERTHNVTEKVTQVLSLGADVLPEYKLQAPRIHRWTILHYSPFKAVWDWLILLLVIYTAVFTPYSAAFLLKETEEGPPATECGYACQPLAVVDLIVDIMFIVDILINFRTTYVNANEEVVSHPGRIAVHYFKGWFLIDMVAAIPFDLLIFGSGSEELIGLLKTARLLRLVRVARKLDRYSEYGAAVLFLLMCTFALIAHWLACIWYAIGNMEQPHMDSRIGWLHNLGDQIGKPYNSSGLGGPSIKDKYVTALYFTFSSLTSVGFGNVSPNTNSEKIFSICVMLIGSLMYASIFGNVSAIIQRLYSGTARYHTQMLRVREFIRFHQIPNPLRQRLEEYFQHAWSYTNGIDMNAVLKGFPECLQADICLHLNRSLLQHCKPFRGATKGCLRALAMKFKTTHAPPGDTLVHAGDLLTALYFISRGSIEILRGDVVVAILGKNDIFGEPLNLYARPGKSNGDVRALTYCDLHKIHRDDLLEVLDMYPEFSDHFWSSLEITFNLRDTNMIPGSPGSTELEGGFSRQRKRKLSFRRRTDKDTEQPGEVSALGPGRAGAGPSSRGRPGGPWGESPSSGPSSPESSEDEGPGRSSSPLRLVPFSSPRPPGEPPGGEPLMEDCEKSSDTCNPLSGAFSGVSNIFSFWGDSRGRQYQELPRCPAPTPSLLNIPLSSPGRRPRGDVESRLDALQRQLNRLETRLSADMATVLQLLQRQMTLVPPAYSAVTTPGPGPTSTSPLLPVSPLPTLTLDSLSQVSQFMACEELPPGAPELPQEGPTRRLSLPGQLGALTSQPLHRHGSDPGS
row,Structure (SMILES),"hERG current change (%, negative = inhibition) at 1uM"
1,C(=N\N(c1ccccc1)c1ccccc1)/c1ccc(N2CCOCC2)s1,5.76%
2,Cn1ccc(C(=O)N2CCCc3ccccc32)n1,13.1%
3,COc1ccc(/C=N/Nc2nc(-c3ccc(C)cc3)c(NC(C)=O)s2)cc1,11.2%
4,C/C(=N\NC(=O)CC#N)c1cc2ccccc2oc1=O,12.7%
5,CCN(CC)S(=O)(=O)c1cccc(-c2nnc(SCC(=O)N3CCC(C(=O)O)CC3)n2N)c1,-4.8%
6,O=C(NCC1CCN(Cc2ccccc2Cl)CC1)Nc1cccc(Cl)c1,-62.3%
7,Cc1ccccc1NS(=O)(=O)c1ccc(C(=O)OCC(=O)NCC(C)C)cc1,13.6%
8,CCOc1cc(C(=O)NC(=S)Nc2ccc(Cl)c(C(=O)O)c2)cc(OCC)c1OCC,9.91%
9,O=C(NCc1cnc2ccccn12)C1CCC(=O)N(Cc2ccccc2F)C1 (centres unmarked),12.5%
10,Cc1ccc(OCCCN(C)C)c(Br)c1,-3.3%
11,Cc1ccc(C(C)C)cc1S(=O)(=O)Nc1ccncc1,12.8%
12,CCN(C(=O)CSc1nc2ccc(OC)cc2[nH]1)C1CCS(=O)(=O)C1 (centres unmarked),9.11%
13,Cc1ccc(-n2c(C)c([N+](=O)[O-])c3ccc(O)cc32)cc1,8.05%
14,COC(CNC(=O)CCc1c(C)nc2c(c(C)nn2-c2ccc(C)cc2)c1C)OC,12.1%
15,O=C(Nc1c(Cl)cc(Cl)cc1C(=O)NCC1CCCO1)c1ccco1 (centres unmarked),5.39%
16,CC1CCCN(C(=O)CSc2nnc(-c3ccc(S(=O)(=O)N4CCOCC4)cc3)n2C)C1 (centres unmarked),10.4%
17,CCN1CCN(C(c2cccs2)C(C)NC(=S)Nc2cccc(C)c2C)CC1 (centres unmarked),-31.8%
18,Cc1cc(C)c2c(=O)n(-c3ccccc3)[nH]c2n1,11.3%
19,CC(C)(C)C1(O)CC(C(F)(F)F)=NN1C(=O)CCc1ccccc1 (centres unmarked),-18.1%

row,Structure (SMILES),"hERG current change (%, negative = inhibition) at 1uM"
1,NC(=O)COC(=O)c1ccc(Cl)c(S(=O)(=O)N(Cc2ccccc2)c2ccc(Cl)cc2)c1,7.96%
2,C=CCN1CC2(c3ccccc3)CN(CC=C)CC(c3ccccc3)(C1)C2=O,2.26%
3,O=C(c1cc(COc2ccc(F)cc2F)on1)N1CCCC(c2ccccc2)C1 (centres unmarked),10.1%
4,Cc1cc(C)c2oc(=O)cc(CN3CCOCC3)c2c1,12.7%
5,CC(NS(C)(=O)=O)C(c1cccs1)N1CCN(C)CC1 (centres unmarked),13.4%
6,CC1=C(C(=O)Nc2ccccc2C(F)(F)F)C(c2sccc2C)NC(=S)N1 (centres unmarked),18.1%
7,Cc1cc(C)cc(N2CC(O)=C(c3nc4ccccc4c(=O)[nH]3)C2=N)c1,12%
8,O=C(Nc1ccc(S(=O)(=O)N2CCCC2)cc1)c1cncc(Br)c1,3.3%
9,CSc1ccc(/C=C/c2ccc3cccc(O)c3n2)cc1,11.3%
10,CC(C)n1nccc1N(Cc1ccc(Br)cc1)S(=O)(=O)c1ccccc1,-3.38%
11,COc1ccc(C2/C(=C(/O)c3ccccc3)C(=O)C(=O)N2C)cc1 (centres unmarked),10.6%
12,C=Cc1ccc(CN2CCCN(Cc3ccc(F)cc3)S2(=O)=O)cc1,3.19%
13,CCc1cc2c(CN3CCN(Cc4ccccc4)CC3)cc(=O)oc2cc1O,12.4%
14,N=C1C(c2ccc(Br)cc2)=C(O)C2CCc3ccccc3N12 (centres unmarked),-1.51%
15,Cc1ccc(CN2C(=O)c3ccccc3C2C(=O)NCc2cccnc2)cc1 (centres unmarked),4.36%
16,COc1ccc(-c2cc3c(=O)n(CC(=O)NCc4ccc(Cl)cc4)ncn3n2)cc1,18.6%
17,O=C(CSc1ccc2nnc(-c3ccncc3)n2n1)Nc1ccc2c(c1)OCCO2,6.23%
18,O=C(ON=C1CCN(S(=O)(=O)c2ccccc2)CC1)c1ccc(Cl)cc1,11.4%
19,CCOC(=O)C1CCN(C(=O)C2CCCN(c3ncnc4c3nc3n4CCCCC3)C2)CC1 (centres unmarked),1.8%

row,Structure (SMILES),"hERG current change (%, negative = inhibition) at 1uM"
1,NC(=O)C1CCN(C(=O)CCSc2ccc(Cl)cc2)CC1,3.66%
2,O=[N+]([O-])c1ccccc1/C=C/CN1CCC(O)CC1,17%
3,Cc1cccc2cc(CN(Cc3nnnn3C3CCCC3)C3CCCCC3)c(=O)[nH]c12,2.98%
4,O=C(O)c1cccc(NS(=O)(=O)c2cccc3nsnc23)c1,11.1%
5,C/C(Nc1ccc(Cl)cc1)=C(/C#N)C(N)=O,16.5%
6,COc1ccccc1OCc1ccc(C(=O)Nc2ccccc2F)cc1,3.8%
7,CCOc1cc(C(=O)NC2CC(C)(C)NC(C)(C)C2)cc(OCC)c1OCC,13.6%
8,COc1ccc(C(=O)COC(=O)c2c(-c3ccccc3)noc2C)c(OC)c1,17.4%
9,COC(=O)C1=C(c2ccc(S(C)(=O)=O)cc2)C[C@@H]2CC[C@H]1N2C(=O)NCc1ccco1,10.6%
10,C/C(=N\O)C(=O)Nc1ccccc1,5.51%
11,O=C(Nc1ccc2c(c1)OCCO2)c1cc(-c2ccccn2)nc2ccc(Br)cc12,11%
12,CCn1c(SCC(=O)OC)nnc1-c1c[nH]c2ccccc12,4.76%
13,CCOC(=O)CNC(=S)N1CCn2c(nc3ccccc32)C1,-0.114%
14,CCCN(Cc1ccccc1)C(=S)Nc1cccc(C)c1C,21.4%
15,COc1cc(/C=C(\C#N)c2nc3ccc(C)cc3[nH]2)c([N+](=O)[O-])cc1OC,13.3%
16,O=C(c1ccccc1F)N1C[C@H]2C[C@@H](C1)c1cccc(=O)n1C2,13.3%
17,COc1ccc(OC)c(NC(=S)N2CCN(C/C=C/c3ccccc3)CC2)c1,-6.57%
18,O=S1(=O)c2ccccc2N=NN1Cc1cc(Cl)cc(Cl)c1,2.05%
